According to PubChem BioAssay (Tox21):
Values joined by “and” are separate entries in the source; they are usually repeats but may differ in a detail not shown here. Identical values can stand only once. Inconclusive means that the source gave no clear call. Such entries were picked first, then a sample of the others. A potency beside an inconclusive call is a rough fit, not a confirmed value. Some compounds were tested as several samples or in several runs, with calls that do not always agree. Active and inactive are the calls of the source. Calls follow the shape of the dose curve; as a rule, active = well fitted cell-killing curve with a large enough effect in the repeat runs; inconclusive = weak or mixed curves, or effect the other way; inactive = no such curve, though single readings can be large or run the other way.

assay: qHTS assay to identify small molecule antagonists of the glucocorticoid receptor (GR) signaling pathway - cell viability counter screen (AID 720693); details: GR-bla HeLa viability, CellTiter-Glo luminescence, 18 h, with 5 nM dexamethasone present; viability change, negative = cytotoxic: at 58.5 µM (top of the series) unless noted; also: nearly all actives have a fitted effect of over 55% in size
% is scaled to controls: 0 for no effect and ±100 for the full control effect; potency is read from the fitted curve at half-maximal effect; tags tell the direction and shape of the fitted curve.

SMILES	Potency	viability change, negative = cytotoxic
CCCCCCCCCCCCCC[N+](C)(C)C	active: 13.4 µM and active: 29.9 µM and active: 13.8 µM	
CCOC(=O)C1=C[C@]2(CC)CCCN3CCc4c(n1c1ccccc41)[C@@H]32	inconclusive: 3.01 µM [rising, partial curve, poor fit]	
CC(O)C#CC(C)O (centres undefined)	inconclusive: 61.1 µM [cytotoxic, single point]	
O=C1C=CC(=O)N1	active: 31.7 µM	
CN(C)c1ccc(N=Nc2ccccc2C(=O)O)cc1	inconclusive: 54.9 µM [cytotoxic]	
CCN(CC)c1ccc(C(=C2C=CC(=[N+](CC)CC)C=C2)c2ccc(S(=O)(=O)O)cc2S(=O)(=O)[O-])cc1	active: 21.9 µM	
NC(=O)c1ccncc1		inactive: -3.62% [at 78.9 µM]
O[C@@H](c1cc(C(F)(F)F)nc2c(C(F)(F)F)cccc12)[C@H]1CCCCN1	inconclusive: 26.8 µM [cytotoxic]	
c1cc(C(c2ccc(OCC3CO3)cc2)c2ccc(OCC3CO3)cc2)ccc1OCC1CO1 (centres undefined)	inconclusive: 61.6 µM [cytotoxic, single point]	
O=C(O)CCCCCCCCCCC(=O)O	inactive	
CCCCCCCCCCCO	inconclusive: 54.9 µM [cytotoxic, single point]	
CCCCCCCCCCCCOC(=O)c1ccc(O)cc1	active: 24.7 µM	
c1cnc2c(c1)ccc1cccnc12	inconclusive: 49.4 µM [cytotoxic, single point] and inconclusive: 54.9 µM [cytotoxic, single point]	
CC1(C)CCC(C)(C)c2cc(C(=O)Nc3ccc(C(=O)O)cc3)ccc21	inconclusive: 54.9 µM [cytotoxic]	
O=Cc1ccccc1C=O	active: 23.9 µM and active: 4.36 µM	
C[Si](C)(C)Cl		inactive: 10.4%
N=C1C=CC(=C(c2ccc(N)cc2)c2ccc(N)cc2)C=C1	inconclusive: 49 µM [cytotoxic, single point]	

SMILES	Potency	viability change, negative = cytotoxic
C=CC(=O)OCCOCC(CC)(COCCOC(=O)C=C)COCCOC(=O)C=C	inconclusive: 28.7 µM [cytotoxic, single point]	
CC(C)CCCCCCCCCCCCCCC(=O)O		inactive: -0.709%
CN1CCN(C2Cc3ccccc3Sc3ccc(Cl)cc32)CC1 (centres undefined)	inconclusive: 26.8 µM [cytotoxic, single point]	
CCCC(=O)OC[C@@H](OC(=O)CCC)[C@@H](OC(=O)CCC)[C@H](Cn1c2nc(=O)[nH]c(=O)c-2nc2cc(C)c(C)cc21)OC(=O)CCC	inconclusive: 6.74 µM [cytotoxic, full curve]	
C=C[C@](C)(O)CC[C@@H]1[C@@]2(C)CCCC(C)(C)[C@@H]2CC[C@@]1(C)O	inconclusive: 54.9 µM [cytotoxic]	
COC1=C(OC)C(=O)C(CCCCCCCCCCO)=C(C)C1=O	inconclusive: 26.8 µM [cytotoxic, single point]	
CCCOC(C)=O		inactive: 3.79%
C[C@H](CCC(=O)O)[C@H]1CC[C@H]2[C@@H]3CC[C@@H]4C[C@H](O)CC[C@]4(C)[C@H]3CC[C@]12C	inconclusive: 54.9 µM [cytotoxic, single point]	
NC(=O)CC[C@@H](N)C(=O)O		inactive: 20.5%
CC(=O)OC(OC(C)=O)c1ccc([N+](=O)[O-])o1	inconclusive: 55.9 µM [cytotoxic, single point]	
N#CSc1ccc(N)c([N+](=O)[O-])c1	active: 55.3 µM	
CC(C)(O)c1ccccc1CC[C@@H](SCC1(CC(=O)O)CC1)c1cccc(/C=C/c2ccc3ccc(Cl)cc3n2)c1	inconclusive: 21.3 µM [cytotoxic, partial curve]	
CN(C)c1ccc2nc3ccc(=[N+](C)C)cc-3sc2c1	inconclusive: 54.9 µM [cytotoxic, single point]	
CC(C)(C)c1cc(O)c(C(C)(C)C)cc1O	inconclusive: 61.6 µM [cytotoxic, single point]	
COC(=O)C1=C(C)NC(C)=C(C(=O)OCCN(C)Cc2ccccc2)C1c1cccc([N+](=O)[O-])c1 (centres undefined)	inconclusive: 54.6 µM [cytotoxic, single point]	
CC(O)COc1ccccc1 (centres undefined)	inactive	
C=C(C)C(=O)OCC(O)COc1ccc(C(C)(C)c2ccc(OCC(O)COC(=O)C(=C)C)cc2)cc1 (centres undefined)	inconclusive: 54.9 µM [cytotoxic, single point]	
